According to PubChem BioAssay AID1745853 (National Center for Advancing Translational Sciences (NCATS), 2022):
This is one part of the list. The main result of the screen is listed elsewhere. These columns were measured beside it and carry no call.

Assays:
Test in all cases: Primary Screen for Target Class Profiling of Small Molecule Inhibitors of Methyltransferases
[1] = target: Glycine N-methyltransferase (Homo sapiens) (UniProt Q14749); conditions: purified enzyme, MTase-Glo SAH luminescence; measured here: GNMT inhibition; at 40 µM; stronger effect = lower value
Outline: (§1)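 Each enzyme was assayed with SAM and its substrate. SAH formation detected by MTase-Glo luminescence; single-point 40 uM screen[…].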

[2] = target: Guanidinoacetate N-methyltransferase (Homo sapiens) (UniProt Q14353); conditions: purified enzyme, MTase-Glo SAH luminescence; measured here: GAMT inhibition; at 40 µM; stronger effect = lower value
Outline: as §1

[3] = target: Histamine N-methyltransferase (Homo sapiens) (UniProt P50135); conditions: purified enzyme, MTase-Glo SAH luminescence; measured here: HNMT inhibition; at 40 µM; stronger effect = lower value
Outline: as §1

[4] = target: Nicotinamide N-methyltransferase (Homo sapiens) (UniProt P40261); conditions: purified enzyme, MTase-Glo SAH luminescence; measured here: NNMT inhibition; at 40 µM; stronger effect = lower value
Outline: as §1

[5] = target: Phenylethanolamine N-methyltransferase (Homo sapiens) (UniProt P11086); conditions: purified enzyme, MTase-Glo SAH luminescence; measured here: PNMT inhibition; at 40 µM; stronger effect = lower value
Outline: as §1
% is scaled to controls: 0 for no effect and ±100 for the full control effect.

Row | Structure (SMILES) | activity change, negative = inhibition [1] [%] | activity change, negative = inhibition [2] [%] | activity change, negative = inhibition [3] [%] | activity change, negative = inhibition [4] [%] | activity change, negative = inhibition [5] [%]
1 | CC1CCN(S(=O)(=O)c2ccc3c(ccn3CC(=O)NCc3cccc(F)c3)c2)CC1 | 4.38 | 0.586 | 2.18 | -2.07 | 0.292
2 | Oc1ccccc1-c1cc(C2=CCOCC2)c2cncn2c1 | -30 | -8.41 | -11.8 | -10.7 | -6.02
3 | CCc1ccccc1NC(=O)Cn1nc2n(C)c(=O)c3ccc(C(=O)NC4CCCCC4)cc3n2c1=O | 0.497 | 3.98 | 2.54 | -0.177 | 1.5
4 | CC(C)OCCCN1C(=O)c2ccc(-c3ccccc3)n2CC1(C)C(=O)NC1CCCCCCC1 (configuration not stated) | -4.24 | -3.48 | -3.07 | -15.4 | -2.95
5 | CC(C)CNC(=O)c1ccc2c(=O)n(C(C)C)c3nn(Cc4ccc(F)cc4Cl)c(=O)n3c2c1 | 0.491 | 0 | 6.32 | 0.012 | 3.2
6 | O=C(CNC(=O)c1ccccc1)NCc1nnc2ccc(-c3ccccc3)nn12 | -17.1 | -5.84 | -4.73 | -15.4 | -25.1
7 | Cc1cc2c(cc3n2CC(C)(C(=O)NC2CCCCCC2)N(c2cccc(Cl)c2)C3=O)o1 (configuration not stated) | -13 | 0.346 | -11 | -9.38 | -10.3
8 | COc1ccc2cc3n(c2c1)CC(C)(C(=O)NC1CCCC1)N(c1cccc(SC)c1)C3=O (configuration not stated) | -11.1 | -3.06 | -4.89 | -11.5 | -7.77
9 | CC1(C(=O)NC2CCCCCC2)Cn2c(cc3ccccc32)C(=O)N1Cc1cccs1 (configuration not stated) | 2.46 | 0 | 2.08 | -5.07 | -3.64
10 | O=S(=O)(Nc1ccc(C(O)(C(F)(F)F)C(F)(F)F)cc1)c1cccs1 | 7.89 | 5.7 | 9.94 | -2.5 | 7.36
11 | Cc1ccccc1C#Cc1ccc(CCC(=O)O)cc1 | -13.4 | -10 | -8.01 | -33.4 | -13.7
12 | CCOc1ccc(N2C(=O)c3cc(-c4ccccc4)nn3CC2(C)C(=O)NCc2ccccc2)cc1 (configuration not stated) | 4.9 | 0 | 7.81 | 4.62 | 2.87
13 | COc1cc2c(cc1NC(C)=O)C(c1ccc(Oc3ccccc3)nc1)CC(=O)N2 (configuration not stated) | -4.92 | -1.03 | -0.303 | -10.5 | -2.87
14 | CC1(COc2cccnc2)COc2ccc(C(=O)NCc3cccs3)cc2N1 (configuration not stated) | -15.3 | -8.85 | -34.2 | -19.7 | -11.7
15 | COc1ccc2cc3n(c2c1)CC(C)(C(=O)NC1CCCCCC1)N(Cc1cccnc1)C3=O (configuration not stated) | 2.31 | 4 | 4.09 | -4.48 | 1.08
16 | c1ccc(-c2csc(N3CCOCC3)n2)cc1 | 1.81 | 2.36 | 8.81 | -13 | 1.87

Row | Structure (SMILES) | activity change, negative = inhibition [1] [%] | activity change, negative = inhibition [2] [%] | activity change, negative = inhibition [3] [%] | activity change, negative = inhibition [4] [%] | activity change, negative = inhibition [5] [%]
17 | CN(C)S(=O)(=O)c1ccc(Cl)c(-c2nnc(-c3ccccc3)o2)c1 | 6.21 | 0.389 | 11.4 | 4.44 | 8.84
18 | CC(O)C1C(=O)N2C(C(=O)O)=C(SC3CNC(C(=O)N(C)C)C3)C(C)C12 (configuration not stated) | 0.682 |  | 8.92 |  | 
19 | Cc1cn2nnc(C(=O)N3CCC(C(=O)Nc4cccc(F)c4)CC3)c2c(=O)[nH]1 | -5.73 | -4.88 | -1.89 | -4.59 | 0.247
20 | COc1ccccc1CNc1nc2c(S(=O)(=O)c3cc(C)ccc3C)nnn2c2ccccc12 | -5.09 | 0.656 | -2.99 | -11.8 | -8.51
21 | Cc1cccc(CNC(=O)CCn2ccc3cc(S(=O)(=O)N4CCCC4)ccc32)c1 | -0.623 | 4.26 | -2.97 | -0.252 | 0.985
22 | O=S(=O)(c1ccc(Cl)cc1)N1CCN(c2ccnc3cc(Cl)ccc23)CC1 | 3.15 | -10.8 | -15 | -36 | -6.81
23 | O=S(=O)(Nc1cccc2ccccc12)c1ccc2[nH]c3c(c2c1)CCCC3 | 0.689 | 4.84 | -2.31 | -10.5 | -1.92
24 | C=Cc1c(C)c2cc3[nH]c(cc4nc(cc5nc(cc1[nH]2)C(C)=C5CCC(=O)O)C(CCC(=O)O)=C4C)c(C)c3C=C | -9.69 | 8.49 | 7.58 | -9.78 | -8.37
25 | CCc1nnc([C@@H]2CC(F)(F)CN2C(=O)CCn2cccn2)o1 | -2.4 | -0.488 | 0.781 | -6.53 | 12.3
26 | CC(C)Cn1c(=O)c2ccccc2n2c(CCC(=O)NCCC3=CCCCC3)nnc12 | -6.33 | 15.3 | 4.56 | -9.62 | -1.08
27 | O=C1NC(Cc2ccccc2)C(=O)N2CCCC12 (configuration not stated) | -2.12 | 0.919 | 3.32 | -10.7 | 4.22
28 | COC(=O)C1=CO[C@@H](O[C@@H]2O[C@H](CO)[C@@H](O)[C@H](O)[C@H]2O)[C@H]2[C@@H]1CC(OC)O[C@@H]2C (some centres not stated) | 1.47 | -0.597 | 5.06 | -9.41 | -7.48
29 | Cc1ccc(O)c(N=Nc2ccccc2)n1 | -90.1 | -81.4 | -84.3 | -83.2 | -84.3
30 | COc1cccc(C(=O)N2CCN(c3ccnc4ccnn34)CC2)c1 | -11 | -5.95 | -4.79 | -17.4 | -5.79
31 | OCC1=CC[C@@H]2C=CO[C@@H](O[C@@H]3O[C@H](CO)[C@@H](O)[C@H](O)[C@H]3O)[C@H]12 | 0.789 | -2.8 | 5.23 | -13.8 | 2.25
